Source: PMC4336329 (PLoS ONE, 2015)
Hit rate of the full screen: of about 310,000 compounds, about 2,200 (0.71%) showed an effect of 50% or more. The effect is printed as a negative number. The list shows a part of the results.

The compounds below were run against human ether-à-go-go-related gene (hERG) potassium channel (human, UniProt Q12809) (assay: primary screen, population patch clamp on CHO cells stably expressing hERG).
human ether-à-go-go-related gene (hERG) potassium channel, sequence (Q12809 whole entry, looked up): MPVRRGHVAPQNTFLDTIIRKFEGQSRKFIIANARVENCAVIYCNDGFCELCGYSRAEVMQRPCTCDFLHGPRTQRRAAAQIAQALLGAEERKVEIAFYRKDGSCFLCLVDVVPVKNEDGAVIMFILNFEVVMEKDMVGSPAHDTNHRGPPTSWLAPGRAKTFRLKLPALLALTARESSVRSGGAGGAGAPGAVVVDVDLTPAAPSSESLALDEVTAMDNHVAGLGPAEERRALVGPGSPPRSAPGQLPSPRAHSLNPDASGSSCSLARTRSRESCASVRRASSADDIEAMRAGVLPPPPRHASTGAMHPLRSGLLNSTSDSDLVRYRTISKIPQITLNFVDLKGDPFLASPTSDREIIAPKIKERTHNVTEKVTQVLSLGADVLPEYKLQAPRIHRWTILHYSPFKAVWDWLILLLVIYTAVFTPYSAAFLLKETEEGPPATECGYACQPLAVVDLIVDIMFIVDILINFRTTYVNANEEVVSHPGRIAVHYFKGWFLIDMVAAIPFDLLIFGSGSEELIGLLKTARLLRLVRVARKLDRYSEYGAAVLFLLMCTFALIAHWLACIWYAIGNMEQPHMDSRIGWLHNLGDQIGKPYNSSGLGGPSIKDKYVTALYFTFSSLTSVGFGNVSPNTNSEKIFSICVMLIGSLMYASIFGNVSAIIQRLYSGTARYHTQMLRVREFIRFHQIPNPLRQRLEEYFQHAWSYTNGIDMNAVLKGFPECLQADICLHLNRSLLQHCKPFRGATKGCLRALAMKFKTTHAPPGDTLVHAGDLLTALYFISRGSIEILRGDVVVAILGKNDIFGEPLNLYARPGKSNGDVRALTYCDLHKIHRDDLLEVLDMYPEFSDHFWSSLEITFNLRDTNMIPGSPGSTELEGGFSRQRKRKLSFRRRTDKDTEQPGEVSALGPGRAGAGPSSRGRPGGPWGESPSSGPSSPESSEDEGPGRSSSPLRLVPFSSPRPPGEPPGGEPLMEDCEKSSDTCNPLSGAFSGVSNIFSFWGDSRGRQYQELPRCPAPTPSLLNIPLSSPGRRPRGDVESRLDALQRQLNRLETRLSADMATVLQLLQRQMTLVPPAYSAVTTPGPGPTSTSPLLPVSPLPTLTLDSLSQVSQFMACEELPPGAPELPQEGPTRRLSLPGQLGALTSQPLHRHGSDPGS

SMILES | hERG current change (%, negative = inhibition) at 1uM [%]
COCCNC(=O)C(=O)Nc1cc2c3c(c1)CCC(=O)N3CCC2 | 53.8
Cc1ccc(S(=O)(=O)c2c(N)n(NC(=O)c3ccco3)c3nc4ccccc4nc23)cc1 | 5.12
CC1CCN(C(=O)c2ccc(CSc3nc4ccncc4n3Cc3ccc(F)cc3)cc2)CC1 | 3.78
CC(=O)N1CCc2cc(Br)cc(S(=O)(=O)NCCCN3CCC(C)CC3)c21 | 4.92
Fc1ccc(Oc2ncccn2)c(F)c1 | 15.1
Cc1ccc2c(NC(=S)NC(=O)c3ccccc3)cccc2n1 | 9.56
CCCCCCCCCCCC(=O)O | 17.5
O=C(CCc1nnc2ccc(NCc3ccc(F)cc3)nn12)N1CCC2(CC1)OCCO2 | 18.2
O=Cc1ccc(N2CCCC2)c(F)c1 | 3.37
COc1cccc(NC(=O)c2nn(-c3ccc(OC)cc3OC)c(=O)c3ccccc23)c1 | 11.7
CCCCCCn1c(C)nc2c(c1=O)c1nc3ccccc3nc1n2/N=C/c1ccco1 | -2.42
O=C(CN1CCN(c2cccc(Cl)c2)CC1)c1ccc(O)cc1O | 9.86
OCCN1CCN(C(=S)NC2CCCC2)CC1 | 0.483
CCOc1ccc(S(=O)(=O)N2CCC(C(=O)N3CCN(C)CC3)CC2)cc1Cl | 12.5
COc1ccccc1C1C2CCCCC2(O)CCN1CC(=O)Nc1ccccc1 (stereo not drawn) | -2.02
COC(=O)CN(c1ccc(F)cc1)S(=O)(=O)c1ccc2c(c1)OCCO2 | 6.98
Cc1ccc(S(=O)(=O)CCC(=O)c2ccc(F)cc2)cc1 | 0.329
CC1Cc2ccccc2N1CC(=O)NC(c1ccccc1)c1ccccc1.O=C(O)C(=O)O (stereo not drawn) | 12.3
CSc1cccc(NC(=O)CCC(=O)O)c1 | 3.71
Cc1ccc(CNC(=O)CN(c2ccc(Cl)cc2)S(C)(=O)=O)cc1 | 13.9
CC1Cc2cc(/C(O)=C3/C(=O)C(=O)N(CCCN4CCOCC4)C3c3ccc(C(C)C)cc3)ccc2O1 (stereo not drawn) | 12.7
O=C(Nc1cccc(-c2nc3ncccc3o2)c1)c1sc2ccccc2c1Cl | 18.7
Cc1ccc(SCc2[nH]nc3c2C2(C(=O)Nc4ccc([N+](=O)[O-])cc42)C(C#N)=C(N)O3)cc1 (stereo not drawn) | 4.12

SMILES | hERG current change (%, negative = inhibition) at 1uM [%]
CC(C)c1ccc(NC(=O)COC(=O)/C=C/c2cccc(Br)c2)cc1 | 0.318
Cc1csc(CNC(=O)C2CCC(=O)N(CCc3cccc(F)c3)C2)n1 (stereo not drawn) | 9.09
COc1ccc(-c2cnn3c4c(c(C)nc23)CCN4C2CCCC2)cc1OC | 10.8
O=S(=O)(NCC1CCCO1)c1ccc(Oc2ccccc2)cc1 (stereo not drawn) | 8.02
C=CCSc1nccc(=O)[nH]1 | 13.2
CSCCC(NC(=O)c1ccc(Cl)cc1)C(=O)OCC(=O)Nc1cc(Cl)ccc1C#N (stereo not drawn) | 12.9
C=CCN(CC=C)C(=O)c1ccc(OC2CCN(Cc3ccccn3)CC2)cc1 | 6.2
COc1ccc(NC(=O)c2cc(CC(C)C)on2)cc1OC | 6.43
Cc1cccc(OP(N)(=O)Oc2cccc(C)c2)c1 | 10.6
Cc1ccc(C)c(OC(=O)c2cncc(Br)c2)c1 | 8.32
O=C(c1ccco1)N1CCN(C(=O)c2ccc(COc3ccc(F)cc3)o2)CC1 | -22.4
C#Cc1ccc(CN2CCC(Oc3ccc(C(=O)NCc4ccccn4)cc3)CC2)cc1 | 6.41
Cc1cc(C(=O)Nc2cccc3ccccc23)n(-c2ccccc2)n1 | 9.69
NCCCC[C@H]1CNC(=S)N1CC1(c2ccccc2)CC1 | 14.4
CCOc1ccc(/C=N/OCC(=O)Nc2cc(C)on2)cc1 | 13.9
Cc1cccc(NC(=O)c2nc[nH]c2C(=O)N[C@@H](Cc2ccccc2)C(=O)OCc2ccccc2)c1 | 14.5
CN(C(=O)c1cc([N+](=O)[O-])ccc1N1CCCC1)C1CCCCC1 | 9.64
O=S(=O)(c1ccc(Cl)cc1)N1CCCC1c1nc(-c2cccc(Cl)c2)no1 (stereo not drawn) | 12.7
Cc1ccc(NC(=O)CSc2nnc(C)n2CC2CCCO2)cc1 (stereo not drawn) | 7.8
O=C(CSc1nc(C2CC2)nc2ccccc12)N1CCCCC1 | 5.07
Cc1cc(C)n2nc(SCC(=O)Nc3ccc(O)cc3)nc2n1 | 7.41
COc1cccc(NC(=O)CSc2nnc(CNC(=O)c3ccccc3)n2C)c1 | -3.55
